About 45 (2%) of roughly 2,000 compounds were called active.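 How the source made its calls: active means inhibition above the mean of all tested compounds plus 3 SD (cut at about 49% in these data); inactive means the rest.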 The list shows a part of the results. Where a SMILES comes first, the peptide text is derived from it. The star is where a group is joined. Boc = CC(C)(C)OC(=O)*
biological target: Perilipin-5 (Homo sapiens) + 1-acylglycerol-3-phosphate O-acyltransferase ABHD5 (Homo sapiens) (UniProt Q00G26+Q8WTS1); experiment: ABHD5-PLIN5 interaction inhibitors, pilot screen, cell lysate, split luciferase complementation, luminescence, NIH validation set (AID 493035);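 further: 0% = DMSO only wells while the 100% control is not stated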; conditions: split G. princeps luciferase complementation, lysates, 4 h; at 7.9 µM, hits give high values
Sequence of UniProt Q00G26 (Q00G26 whole entry, looked up): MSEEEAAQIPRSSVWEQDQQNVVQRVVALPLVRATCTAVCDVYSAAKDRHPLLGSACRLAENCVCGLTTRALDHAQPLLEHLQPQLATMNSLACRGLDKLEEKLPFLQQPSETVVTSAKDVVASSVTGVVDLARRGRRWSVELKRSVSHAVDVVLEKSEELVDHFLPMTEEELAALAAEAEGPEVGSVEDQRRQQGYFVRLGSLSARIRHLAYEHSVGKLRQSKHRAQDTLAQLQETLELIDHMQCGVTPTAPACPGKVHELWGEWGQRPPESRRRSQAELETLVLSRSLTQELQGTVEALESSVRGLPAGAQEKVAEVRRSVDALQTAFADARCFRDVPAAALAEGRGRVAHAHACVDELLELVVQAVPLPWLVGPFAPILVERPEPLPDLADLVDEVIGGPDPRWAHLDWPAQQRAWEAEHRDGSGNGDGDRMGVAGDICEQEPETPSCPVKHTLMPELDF
Sequence of UniProt Q00G26 (Q8WTS1 whole entry, looked up): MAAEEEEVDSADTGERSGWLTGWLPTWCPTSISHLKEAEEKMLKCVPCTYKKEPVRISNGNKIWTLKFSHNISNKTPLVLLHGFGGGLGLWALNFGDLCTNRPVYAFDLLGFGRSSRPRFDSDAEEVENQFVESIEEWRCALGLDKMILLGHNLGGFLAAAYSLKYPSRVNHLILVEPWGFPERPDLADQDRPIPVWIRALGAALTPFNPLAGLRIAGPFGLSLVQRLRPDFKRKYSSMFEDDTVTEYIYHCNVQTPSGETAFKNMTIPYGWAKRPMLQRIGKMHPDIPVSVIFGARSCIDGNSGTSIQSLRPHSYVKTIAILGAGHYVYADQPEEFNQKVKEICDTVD

inhibition, inactive:
COC(=O)c1cc(OC)c(OC)cc1NC(=O)CN1C(=O)c2ccccc2C1=O -8.74%
Cc1ccc(S(=O)(=O)NC(C(=O)Oc2ccc3c(C(F)(F)F)cc(=O)oc3c2)c2ccccc2)cc1 (configuration not stated) -12.5%
CN(C(=O)C(Cl)Cl)c1ccc(OC(=O)c2ccco2)cc1 2.13%
Cc1oc2c(CN3CCCC3)c(O)ccc2c(=O)c1-c1ccc(Cl)cc1 -4.97%
CN(C)CCOC(C)(c1ccccc1)c1ccccn1 (configuration not stated) -6.69%
COc1ccccc1C(=O)Oc1ccc2c(c1)O/C(=C\c1ccncc1)C2=O 35.9%
Cc1csc(-c2coc3cc(O)cc(C)c3c2=O)n1 -5.36%
COc1ccc(NC(=O)C2C(=O)N(CCO)C3(C)CC2c2ccccc2O3)cc1 (configuration not stated) -8.28%
Cc1ccc(S(=O)(=O)n2ccnc2)cc1C -3.74%
CC(C)CC(NC(=O)C1CCCN1C(=O)OC(C)(C)C)C(=O)NCC(N)=O (stereo not drawn) (Boc-Pro-Leu-Gly-NH2; configuration not given here) -15.8%
Cc1ncc(C(=O)O)c(C(=O)O)c1N -8.5%
CN1CCN(CCCN2c3ccccc3Sc3ccc(C(F)(F)F)cc32)CC1 -22.1%
CNC[C@H](O)c1ccc(O)c(O)c1 -19.5%
CC(C)[N+]1(C)[C@@H]2CC[C@H]1CC(OC(=O)C(CO)c1ccccc1)C2 (some centres not stated) -2.34%
C[N+]1(C2CCC3CCCC2C3O)CCCCC1 (configuration not stated) -6.88%
COC(=O)c1cc(-c2ccc(OC)c(OC)c2)on1 -3.76%
COc1ccc(/C=C/C(=O)Nc2ccccc2C(=O)O)cc1OC -12.4%
CC(=O)N/C(=C/c1ccc2c(c1)OCO2)C(=O)NCCO 2.23%
COC(=O)c1[nH]c(=O)c2ccccc2c1O -0.91%
CCc1nc2ccccc2c(NC(=O)CN2CC(C)CC(C)C2)c1C (configuration not stated) -7.88%
Oc1ccc(/C=C/c2cc(O)cc(O)c2)cc1 -3.51%
COc1cccc(OC)c1C(=O)NCCSC1CCCCC1 -2.37%
CNc1nc(Nc2ccccc2)nc(OCC(F)(F)F)n1 -7%
COc1ccc(C(=O)/C=C2/c3ccccc3CC(C)(C)N2C)cc1 5.27%
O=C(CCC(=O)NCCO)NCCO 9.88%
Oc1c(Cl)cc(Cl)c(Cl)c1Cc1c(O)c(Cl)cc(Cl)c1Cl -0.34%
COc1cccc(-n2c(C)c3c(OC)cccc(=O)c3c2C)c1 10.7%

From PubChem BioAssay AID493035 (The Scripps Research Institute Molecular Screening Center, 2011)
